Several values for one entry are separate records, joined by “and”; a condition that tells them apart may be missing. Identical values can stand only once. About 12,000 (3.5%) of roughly 340,000 compounds were called active. Inconclusive results, whose numbers are uncertain, are shown with a selection of clear calls. Calls come from the whole dose curve; as a rule, active = well fitted inhibition curve with a large enough effect; inconclusive = small, poorly fitted or top-dose-only effect, or another doubt; inactive = no such curve, though single readings can be large or run the other way. No potency is given beside an inconclusive call; the fits are too rough.
assay: qHTS Assay for Inhibitors of Hepatitis C Virus (HCV); conditions: Huh7.5.1 HCVcc-Cre (HCVcc is cell-culture hepatitis C virus) infection, luciferase reporter, 44 h; series mostly up to 41.8 µM
Outline: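 1,000 cells/well; 4 h culture; + compound; + HCVcc-Cre (~0.5 moi); 44 h; luciferase substrate, RT 15 min; read 15 sec.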
Potency is the fitted concentration of half-maximal effect; tags give direction and shape of the fitted curve.

| SMILES | Potency |
| --- | --- |
| O=c1oc(CCCO)cc2ccc(C#Cc3ccsc3)cc12 | inconclusive [inhibitor, single point] |
| COc1ccc(CCN2C(=O)C(Oc3ccccc3C)C2c2ccc3c(c2)OCO3)cc1OC (configuration not stated) | inconclusive [inhibitor, partial curve] |
| COc1ccc(N2CCN(CC(O)COC(c3ccc(F)cc3)c3ccc(F)cc3)CC2)cc1 (configuration not stated) | inconclusive [inhibitor, partial curve] |
| Cc1c(O)ccc2c(CN3CCN(Cc4ccccc4)CC3)cc(=O)oc12 | inactive |
| Nc1ncnc2c1ncn2[C@@H]1O[C@H](CN2CCCS2(=O)=O)[C@@H](O)[C@H]1O | inactive |
| Cn1nnc2cc(C(=O)Nc3ccccc3)ccc21 | inconclusive [inhibitor, single point] |
| CC(C)Cn1c(O)c(/C=C2\C=NN=C2c2ccccc2)sc1=S | inconclusive [inhibitor, partial curve] |
| CN(c1ccccc1)S(=O)(=O)c1cccc(NC(=O)c2ccc(Cl)c([N+](=O)[O-])c2)c1 | active: 11.2 µM |
| Cc1ccc(CNC(=O)C2CCCN(c3cnccn3)C2)cc1 (configuration not stated) | inactive |
| C=CCNCCCCOc1ccccc1-c1ccccc1 | inconclusive [inhibitor, single point] |
| CCn1nc(NC(=O)CC(C)C)c2cc3cccc(C)c3nc21 | inconclusive [inhibitor, partial curve] |
| CCOC(=O)C1CCCN(c2nc(C)nc3c2oc2ccccc23)C1 (configuration not stated) | inactive |
| CC(=O)c1ccc(C(C)(C)c2ccc(C(C)=O)s2)s1 | inconclusive [inhibitor, single point] |
| CC1=CC(C)(C)N2C(=O)C3(NCCc4c3[nH]c3ccccc43)c3cccc1c32 (configuration not stated) | inconclusive [inhibitor, single point] |
| CC(NS(=O)(=O)c1ccccc1)C(c1cccs1)N1CCN(C)CC1 (configuration not stated) | inactive |
| N#Cc1ccccc1OCCCNC1CCCC1 | inconclusive [inhibitor, single point] |
| COC(=O)CCSCC(=O)N1N=C(c2ccc(OC)cc2)CC1c1cccc(OC)c1OC (configuration not stated) | inactive |
| CC(=O)Nc1ccc(C(=O)CSc2cc(C)c3cccc(C)c3n2)cc1 | inconclusive [inhibitor, single point] |
| CN(C)c1ccc(/C=N/NS(=O)(=O)c2ccc(Br)cc2)cc1 | inconclusive [inhibitor, partial curve, poor fit] |
| COc1cc(OC)c(OC)cc1/C=C1/C(=O)N=C(N)N1C | inactive |
| CC1=CC(C)(C)Nc2ccc(OC(=O)CCN3C(=O)c4ccccc4C3=O)cc21 | inconclusive [inhibitor, single point] |
| CCC1=Nc2cc(C(=O)NCC3CCCO3)ccc2Sc2ccc(Br)cc21 (configuration not stated) | inconclusive [inhibitor, single point] |
| COc1ccc(Cc2nc3ccc(C(=O)N4C[C@@H](C)O[C@@H](C)C4)cc3o2)cc1OC | inconclusive [inhibitor, single point] |
| Cc1c(Cl)cccc1NS(=O)(=O)c1c(C(=O)N2CCOCC2)c(C)n(C)c1C | inactive |

| SMILES | Potency |
| --- | --- |
| COc1ccccc1CCNC(=O)CCSc1nc(-c2ccco2)cc(C(F)(F)F)n1 | inconclusive [inhibitor, partial curve] |
| COc1ccccc1N1CCN(C(=O)c2sc3ncnc(N4CCN(c5ccccn5)CC4)c3c2C)CC1 | inconclusive [inhibitor, single point] |
| COc1ccc(/C=C2\SC(=S)N(CCCC(=O)NC3CCCC3)C2=O)cc1OC | inactive |
| CN(C)c1ccc(/C=C/c2ccc3ccccc3[n+]2C)cc1 | active: 5.62 µM and active: 891 nM |
| COCCn1c(SCC(=O)Nc2ncc(C)s2)nc2sc3c(c2c1=O)CCC3 | active: 2.24 µM |
| C=CCc1ccc(OCCCCNC(C)CC)c(OC)c1 (configuration not stated) | active: 8.91 µM |
| COc1cc([N+](=O)[O-])ccc1NC(=O)C[n+]1cccc(C)c1 | inconclusive [inhibitor, single point] |
| Cc1cccc(C(=O)N=c2c(C#N)cc3c(=O)n4cccc(C)c4nc3n2Cc2ccco2)c1 | active: 5.62 µM |
| CC(/C=C/c1ccccc1)=N/NC(=O)c1cccc(Br)c1 | inconclusive [inhibitor, single point] |
| COc1ccc(NC(=O)NCCc2cccc(Cl)c2)cc1OC | inactive |
| Cc1ccc(NC(=O)c2ncn(CCCN(CCCn3cnc(C(=O)Nc4ccc(C)c(C)c4)n3)Cc3ccc4[nH]ccc4c3)n2)cc1C | inconclusive [inhibitor, partial curve] |
| CCOc1ccccc1NC(=O)C1CCCN(C(=O)NCc2ccccc2)C1 (configuration not stated) | inconclusive [inhibitor, partial curve, poor fit] |
| CC(OC(=O)c1cc(Br)ccc1O)C(=O)NC1(C#N)CCCCC1 (configuration not stated) | inconclusive [inhibitor, single point] |
| O=C(COC(=O)C1CCC1)NCc1ccc(F)cc1 | inconclusive [inhibitor, single point] |
| CC(=O)Nc1ccc(S(=O)(=O)c2cc(O)ccc2O)cc1 | inactive |
| Cc1cccc(/C=N/Nc2ccc3ccccc3n2)c1 | inconclusive [inhibitor, single point] |
| CN(C)C(CNC1CC(C)(C)NC(C)(C)C1)c1cccc(F)c1 (configuration not stated) | inactive |
| Cc1cccn2cc(-c3ccc(F)cc3)nc12 | inactive |
| COc1ccc(NC(=O)CC2C(=O)N(c3ccc(Cl)cc3)C(=S)N2CCc2ccccn2)cc1 (configuration not stated) | inconclusive [inhibitor, single point] |
| CCOC(=O)N1CCN(S(=O)(=O)c2ccc3c(c2)CC(C)N3C(C)=O)CC1 (configuration not stated) | inconclusive [inhibitor, single point] |
| CC(C)OP(=O)(OC(C)C)C(O)c1ccc(N(C)C)cc1 (configuration not stated) | inactive |
| Cc1ccc(-c2csc3nc4cc(C(=O)NC5CCC(O)CC5)ccc4c(=O)n23)cc1 (configuration not stated) | inconclusive [inhibitor, single point] |
| CCCCNC(=O)c1cccc2c(=O)c(C)c(-c3ccccc3)oc12 | inconclusive [inhibitor, single point] |
| Cc1ccc2nc(-c3cccnc3)cc(C(=O)N3CCN(c4ccc([N+](=O)[O-])cc4)CC3)c2c1 | inconclusive [inhibitor, single point] |

| SMILES | Potency |
| --- | --- |
| CCN(C(=O)COC(=O)CCc1ccc(OC)cc1)c1c(N)n(Cc2ccccc2)c(=O)[nH]c1=O | inconclusive [inhibitor, full curve, poor fit] |
| CCOc1ccc(Nc2ccc(N3C(=O)CCC3=O)cc2[N+](=O)[O-])cc1 | inactive |
| O=C(CSc1ncnc2sc3c(c12)CCC3)N1CCOCC1 | inconclusive [inhibitor, single point] |
| N#Cc1ccccc1NC(=O)c1ccc2c(c1)OCCO2 | inactive |
| COc1ccc(C(CC(=O)Nc2cc(OC)cc(OC)c2)n2cccc2)cc1 (configuration not stated) | inconclusive [inhibitor, single point] |
| CCOc1ccc(-n2ccc(=O)c(C(=O)O)n2)cc1 | inactive |
| CC(/C=N/N1CCN(c2ccccc2)CC1)=C\c1ccccc1 | inactive |
| Cc1ccc(NC(=O)CN(C)C(=O)CSc2nnc(NC(C)C)s2)cc1 | inactive |
| CC(=O)Nc1cn(-c2ccccc2)nc1-c1ccccc1 | inactive |
| COc1cccc(OC)c1OCCCCN1CCC(Cc2ccccc2)CC1 | active: 11.2 µM |
| CCOC(=O)c1c(C)[nH]c(C(=O)OCCOc2ccccc2C)c1C | inconclusive [inhibitor, single point] |
| Cc1cc(C)nc(SCc2nnc(SCC(=O)Nc3nc(-c4ccccc4)cs3)n2C)n1 | inconclusive [inhibitor, single point] |
| CCC(C)C(=O)Nc1cc(C(=O)OC)ccc1C(=O)OC (configuration not stated) | inconclusive [inhibitor, partial curve, poor fit] |
| COc1cccc(-n2nc(C#N)c(Cl)cc2=O)c1 | inconclusive [inhibitor, single point] |
| COc1ccccc1CN1CCCC(CN(CCN(C)C)C(=O)C2CCCC2)C1 (configuration not stated) | inconclusive [inhibitor, full curve] |
| COc1ccc(/C=C/C(=O)c2ccc(NC(=O)c3cccs3)cc2)cc1OC | active: 10 µM |
| CCN(c1ccccc1)c1cc(C)nc2ncnn12 | inactive |
| Cc1cc(C(=O)COC(=O)C23CC4CC(CC(O)(C4)C2)C3)c(C)n1-c1c(C)n(C)n(-c2ccccc2)c1=O | inconclusive [inhibitor, single point] |
| COc1ccc(/C=N/NC(=O)c2cc(-c3cccn3C)n[nH]2)cc1OC | inactive |
| C1=C2C[N+]3(CCCC3)CC2Cc2ccc3ccccc3c21 (configuration not stated) | inconclusive [inhibitor, partial curve] |
| O=C(Nc1ccc(NC(=O)c2ccco2)nc1)c1cccc(F)c1 | inconclusive [inhibitor, partial curve] |
| CC(C)CN(C(=O)CN1CC=C(c2ccccc2)CC1)c1c(N)n(CC(C)C)c(=O)[nH]c1=O | active: 3.55 µM |
| CC(=O)NC1=C(Nc2ccc(N(C)C)cc2)C(=O)c2ccccc2C1=O | inconclusive [inhibitor, single point] |
| Cc1nn2c(c1-c1ccccc1)N=C(c1ccco1)CC2c1ccccc1 (configuration not stated) | inconclusive [inhibitor, single point] |
